The text below walks through data of publication PMC6919601, “Identification of Plasmodium dipeptidyl aminopeptidase allosteric inhibitors by high throughput screening” (PLoS ONE, 2019).

About 230 (0.21%) of roughly 110,000 compounds showed an effect of 50% or more. The list shows a part of the results.
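Also: 30 min substrate incubation versus DMSO and 10 µM JCP410 controls.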

In the assay the target is DPAP1 (Plasmodium falciparum, UniProt Q8IIJ9). In words: primary screen, percent inhibition; read by cleavage of a fluorogenic dipeptide substrate; higher = more effect of the substance. Details: species or system P. falciparum D10 trophozoite lysates; single well.
Chain of DPAP1 (Q8IIJ9 whole entry, looked up): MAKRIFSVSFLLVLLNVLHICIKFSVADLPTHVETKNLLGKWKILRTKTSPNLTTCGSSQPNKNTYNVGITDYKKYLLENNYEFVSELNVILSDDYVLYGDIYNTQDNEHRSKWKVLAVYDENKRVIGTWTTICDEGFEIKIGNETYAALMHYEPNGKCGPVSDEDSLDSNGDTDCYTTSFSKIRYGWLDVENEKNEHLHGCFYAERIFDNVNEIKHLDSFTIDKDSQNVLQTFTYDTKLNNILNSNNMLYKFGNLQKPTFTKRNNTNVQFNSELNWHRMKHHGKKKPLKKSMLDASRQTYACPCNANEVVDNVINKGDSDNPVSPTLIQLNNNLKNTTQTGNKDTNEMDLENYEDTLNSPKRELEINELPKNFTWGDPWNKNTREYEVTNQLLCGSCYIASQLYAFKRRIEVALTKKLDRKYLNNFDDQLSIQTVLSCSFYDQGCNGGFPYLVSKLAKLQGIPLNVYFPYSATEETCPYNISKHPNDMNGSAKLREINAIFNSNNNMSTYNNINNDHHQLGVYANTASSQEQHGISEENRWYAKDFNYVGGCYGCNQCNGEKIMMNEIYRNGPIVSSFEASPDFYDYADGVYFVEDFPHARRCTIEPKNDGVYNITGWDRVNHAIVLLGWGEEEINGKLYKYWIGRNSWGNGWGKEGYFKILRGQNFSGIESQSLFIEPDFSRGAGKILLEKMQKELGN
Take `CC(=O)c1nn(-c2cccc(Br)c2)cc1C(=O)c1ccccc1`: the “% Inhibition @ 10 uM” value is -1.49%.
For the molecule `CC1=C(c2ccc(C)c(C)c2)S(=O)(=O)N=C1N1CCC2(CC1)OCCO2`, the “% Inhibition @ 10 uM” value was determined as 2.27%.
Consider `O=C1C(=O)N2C(=C1C(=O)N1CCCCCC1)c1ccccc1CC21CCCCC1`, for which the “% Inhibition @ 10 uM” value was 0.475%.
With `O=C(O)c1c(CNC2CCCc3ccccc32)c2ccccc2n1Cc1ccccc1F` (stereo not shown), the “% Inhibition @ 10 uM” value is 5.09%.
The value for `COc1ccc2oc(=O)cc(CN(C)Cc3ccco3)c2c1` was -3.49%.
`COCCCN(C(=O)c1sc2nc3n(c(=O)c2c1C)CCCCC3)C(C)c1ccncc1` (stereo not shown): the “% Inhibition @ 10 uM” value turned out to be 2.62%.
In the case of `Cc1ccccc1C(=O)NCCn1ccc2ccccc21`, the “% Inhibition @ 10 uM” value stood at 3.67%.
As for `Clc1ccc(-c2nn3c(-c4ccco4)nnc3c3ccccc23)cc1`, the “% Inhibition @ 10 uM” value is on record as -1.35%.
As for `C=COCCNC(=S)Nc1ccccc1`, the “% Inhibition @ 10 uM” value was found to be 8.01%.
With `O=C1c2cccnc2C(=O)N1Cc1ccc(S(=O)(=O)NC2CCCCCC2)cc1`, the “% Inhibition @ 10 uM” value is -0.742%.
Take `CCCNC(=O)CN(c1ccc(CC)cc1)S(C)(=O)=O`: the “% Inhibition @ 10 uM” value is recorded as -0.795%.
Consider `COc1cc(OC)cc(C(=O)Nc2ccc(C)cc2C)c1`, for which the “% Inhibition @ 10 uM” value is -2.32%.
For `O=C(CSc1ccc2nnc(-c3ccccn3)n2n1)c1ccccc1`, the “% Inhibition @ 10 uM” value was determined as 2.22%.
Regarding `O=c1cc(NCCc2c[nH]c3ccccc23)c2ccccc2o1`, the “% Inhibition @ 10 uM” value is given as -1.68%.
For `CC1CCN(C(=O)CNC(=O)c2ccccc2)CC1`, the “% Inhibition @ 10 uM” value is recorded as -4.75%.
`N=C1S/C(=C\c2ccc(N3CCOCC3)cc2)C(=O)N1c1ccccc1Cl`: the “% Inhibition @ 10 uM” value was -6.39%.
For the molecule `COc1ccc(-c2nonc2NC(=O)c2ccccc2Br)cc1`, the “% Inhibition @ 10 uM” value came to 0.635%.
On to `Cc1ccc(S(=O)(=O)N2CCN(C(=O)N3CCCCC3)CC2)c(C)c1`, for which the “% Inhibition @ 10 uM” value is -3.78%.
For `CCOC(=O)c1c(NC(C)=O)sc2c1CCC(C#N)=C2Cl`, the “% Inhibition @ 10 uM” value is on record as -2.42%.
As to `Cc1c(C(=O)N2CCN(c3ccccc3)CC2)cccc1[N+](=O)[O-]`, the “% Inhibition @ 10 uM” value is 1.74%.
In the case of `COc1ccc(CNC2CCCC2)cc1Br`, the “% Inhibition @ 10 uM” value was 3.48%.
As for `O=C(Cn1c(=O)c2cccn2c2cccnc21)NCCc1cccs1`, the “% Inhibition @ 10 uM” value was -10.2%.
Consider `CC(CCCC(C)(C)O)NC1CCN(CCc2ccccc2)CC1` (stereo not shown), for which the “% Inhibition @ 10 uM” value worked out at 4.74%.
As to `COc1ccc(C2N=C(NO)c3ccccc3N2)cc1` (stereo not shown), the “% Inhibition @ 10 uM” value was -0.424%.
On to `COc1cc(/C=C2\SC(=O)N(CC(=O)N3CCOCC3)C2=O)ccc1OCC(=O)O`, for which the “% Inhibition @ 10 uM” value is listed as -1.11%.
With `O=C(CCC(=O)N1Cc2ccccc2Oc2ncccc21)NCc1cccnc1`, the “% Inhibition @ 10 uM” value is listed as -4.13%.
Consider `Cc1ccc(CN2CCc3c([nH]c4ccccc34)C2)s1`, for which the “% Inhibition @ 10 uM” value is 0.472%.
With `Cc1ccc(C)c(N2C(=O)CC(N3CCc4ccccc4C3)C2=O)c1` (stereo not shown), the “% Inhibition @ 10 uM” value is recorded as -2.32%.
As for `Cc1ccc(CCNC(=O)c2oc3c(c2C)-c2n[nH]cc2CC3)cc1`, the “% Inhibition @ 10 uM” value is 3.87%.
The value for `CC1(C)O[C@H]2[C@@H](O1)[C@@H](C(=O)NCc1ccc(Cl)cc1)O[C@@H]1OC(C)(C)O[C@@H]12` was 6.31%.
Then `C=CCN1C(=O)C2(NC(CC(C)C)C3C(=O)N(Cc4ccccc4)C(=O)C32)c2ccccc21` (stereo not shown), with 2.4%; and `COc1cc(CNCCc2ccc(OC)c(OC)c2)ccc1O`, with -7.28%.
Then `COc1ccc(OC)c(N(CC(=O)NC2CC3CCC2C3)S(=O)(=O)c2ccccc2)c1` (stereo not shown), with -6.77%; and `COc1ccc2ccccc2c1/C=C(\C#N)c1ccccc1`, with -2.7%.
`O=C(Nc1cc(C(F)(F)F)ccc1Cl)c1ccc([N+](=O)[O-])cc1Cl`: the “% Inhibition @ 10 uM” value is -0.636%.
For `Fc1ccc(CCNCc2ccco2)cc1`, the “% Inhibition @ 10 uM” value is recorded as 1.83%.
On to `N#CC1(NC(=O)[C@H](Cc2c(F)cccc2F)NC(=O)c2ccc(-c3ccccc3Cl)nc2)CCS(=O)(=O)CC1`, for which the “% Inhibition @ 10 uM” value is -0.207%.
For `COC(=O)c1ccc(N2Cc3ccc(Br)cc3C2)cc1`, the “% Inhibition @ 10 uM” value stood at 3.61%.
With `COC(=O)c1nnn(-c2ccc(C)cc2)c1N`, the “% Inhibition @ 10 uM” value is on record as -2.79%.
For the molecule `O=C(Nc1nnc(S(=O)(=O)N2CCOCC2)s1)C12C[C@H]3C[C@@H](C1)C[C@@H](C2)C3`, the “% Inhibition @ 10 uM” value is -7.53%.
The value for `C(=C\c1ccccc1)/CN1CCN(Cc2ccncc2)CC1` was 3.48%.
The value for `CC1CN(C(=O)c2cccc(Cl)c2)CC(C)O1` (stereo not shown) was 1.43%; that for `C1CCCC(NCCN2CCOCC2)CCC1` was -2.95%.
The value for `COc1ccc(-c2cccc(=O)o2)cc1` was -5.51%; that for `COc1ccccc1C(=O)Nc1ccccc1C(C)C` was -2.74%.
On to `CCCNc1nc(-c2ccc(Br)cc2)cs1`, for which the “% Inhibition @ 10 uM” value is -3.61%.
On to `CC(C)C(C(=O)N1CCCCC1)N1Cc2ccccc2C1=O` (stereo not shown), for which the “% Inhibition @ 10 uM” value is reported as 1.34%.
`CCCn1c(O)c(C#N)c(C)c(CN2CCCCC2)c1=O`: the “% Inhibition @ 10 uM” value is on record as -0.703%.
Consider `COc1ccc(-c2cc(C)no2)cc1S(=O)(=O)N1CCCN(Cc2ccc(F)cc2)C1`, for which the “% Inhibition @ 10 uM” value is listed as -6.29%.
As to `O=C(CN(C1CCCCC1)S(=O)(=O)c1ccc(F)cc1)Nc1cccc(Cl)c1`, the “% Inhibition @ 10 uM” value is on record as -1.57%.
`CSc1oc(-c2cccs2)nc1S(=O)(=O)c1ccc(Cl)cc1`: the “% Inhibition @ 10 uM” value is recorded as 4.69%.
Regarding `Cc1ccccc1CNC(=O)c1cc2cccc3c2n1CCO3`, the “% Inhibition @ 10 uM” value is -2.56%.
